Laboratory results reported in PubChem BioAssay AID759 (NMMLSC, 2007).
Hit rate of the full screen: of about 190,000 compounds, about 270 (0.14%) were called active. The shares of active, inactive and inconclusive entries below differ from those in the screen.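 How the source made its calls: active means GTP binding activity at least 20% away from the 100% baseline, either lowered as inhibitor or raised as activator; inconclusive means flagged as likely green fluorescent, judged across all proteins in the well; inactive means the rest.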

target: GTPase HRas (Homo sapiens) (UniProt P01112); test: HRas wt fluorescent GTP binding changes, either direction – biochemical, wildtype, bead-based flow cytometry, multiplex, primary screen (AID 759); conditions: GST-Ras wt beads, Bodipy-FL-GTP binding, at 10 µM, actives lie on both sides;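 further: 0% = unlabeled GTP competition control and 100% = no-compound control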
Sequence of UniProt P01112 (P01112 whole entry, looked up): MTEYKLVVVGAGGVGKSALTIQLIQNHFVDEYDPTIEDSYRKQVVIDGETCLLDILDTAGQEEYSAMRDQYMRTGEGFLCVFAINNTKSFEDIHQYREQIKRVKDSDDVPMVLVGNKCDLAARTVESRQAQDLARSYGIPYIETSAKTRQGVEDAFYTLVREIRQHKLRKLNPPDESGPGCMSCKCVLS

Compound | GTP binding activity
Cc1cc(N2CCOCC2)nc2ccc(NC(=O)CCC(=O)N3CCC(C)CC3)cc12 | inconclusive: 104%
COc1ccc(-c2cc(N3C(=O)Nc4ccccc4N3O)n[nH]2)c(OC)c1 | inconclusive: 84%
CCC1C(=O)CC(c2ccccc2)NC1c1ccccc1 (configuration not stated) | inconclusive: 96%
O=c1c2ccccc2c(/C=N/n2cnnc2)c(O)n1-c1ccccc1F | inconclusive: 90%
O=[N+]([O-])c1ccc(O)c(/C=N/NC2=NS(=O)(=O)c3ccccc32)c1 | inconclusive: 88%
COc1ccc(C2Nc3ccccc3C(=O)N2Cc2ccccc2)cc1COc1ccccn1 (configuration not stated) | inconclusive: 109%
O=[N+]([O-])c1ccc(/C=N/N=C/c2ccc([N+](=O)[O-])o2)o1 | inactive: 91%
O=C(O)CCCN1C(=O)/C(=C/c2ccc(-c3nc4ccccc4s3)o2)SC1=S | inconclusive: 81%
O=C(NNS(=O)(=O)c1ccc2ccccc2c1)c1cc(-c2ccccn2)nc2ccccc12 | inconclusive: 94%
Cc1ccc(C)c(N2CCN(C(=O)CN(C)S(=O)(=O)c3ccc4c(c3)CCC(=O)N4)CC2)c1 | inactive: 82%
CCC(O)CNc1nc(SC)nc2sc3c(c12)CCN(C)C3 (configuration not stated) | inactive: 97%
CC1CCCCC1NC(=O)Cn1nnc(-c2ccc(Cl)cc2)n1 (configuration not stated) | inconclusive: 103%
O=C1CS/C(=C\[N+](=O)[O-])N1c1ccccc1 | inactive: 102%
O=C(CC12CC3CC(CC(C3)C1)C2)NCC(c1ccc(F)cc1)N1CCOCC1 (configuration not stated) | inactive: 95%
CNC(=S)N(CCc1cccc(C)c1)Cc1cc2cc(OC)c(OC)cc2[nH]c1=O | inconclusive: 97%
COCCCNC(=O)Cn1cc(C(=O)C2CC2)c2ccccc21 | inconclusive: 93%
O=C(Cn1cc2c(n1)CCCCC2)Nc1c(F)c(F)cc(F)c1F | inconclusive: 103%
CCc1ccc(C(C(=O)NC2CCCC2)N(C(=O)/C=C/C(=O)Nc2cc(C)on2)c2ccccc2C)cc1 (configuration not stated) | inactive: 97%
COc1c(C)cc(Br)cc1C(=O)O | inactive: 111%
CN(C(=O)COC(=O)c1c[nH]c(=O)[nH]c1=O)C1CCCCC1 | inconclusive: 105%
Cn1c(N)c(C(=O)COC(=O)[C@@H]2CCCN2S(=O)(=O)c2ccc(Cl)cc2)c(=O)n(C)c1=O | inactive: 91%
CCc1ccc(N=C2N=C(N)c3ccccc32)cc1 | inconclusive: 104%
COc1ccc(Cl)cc1-c1nc(SCC(=O)N(C)CCC#N)n[nH]1 | inconclusive: 90%

Compound | GTP binding activity
O=c1ccc(C(F)(F)F)cn1Cc1cc(=O)n2cc(Br)ccc2n1 | inconclusive: 118%
Cc1onc(-c2ccccc2Cl)c1C(=O)NCc1cccs1 | inconclusive: 104%
CC(C)n1c(O)c(N=Nc2ccc(Cl)nn2)c2ccccc21 | active: 121% [activator]
O=[N+]([O-])c1ccc2nc(CCCc3nc4ccc([N+](=O)[O-])cc4[nH]3)[nH]c2c1 | inconclusive: 96%
Cc1oc(-c2nc3ccccc3n2C)cc1C(=O)c1ccccc1 | inactive: 98%
Cc1cccc(CSCCNC(=O)CSCc2ccc([N+](=O)[O-])cc2)c1 | inconclusive: 98%
O=c1cc(O)c2sc3nc(C(F)(F)F)c4c(c3c2[nH]1)CCCCC4 | inconclusive: 92%
C/C(=N\NC(=O)CSc1nc2nc(C)cc(C)n2n1)c1ccccc1 | inconclusive: 88%
Cc1c(Cc2ccccc2)c(=O)oc2cc(OCc3ccc(C(=O)O)cc3)ccc12 | inconclusive: 92%
CCN(C(=O)COC(=O)c1cccnc1SC)C1CCS(=O)(=O)C1 (configuration not stated) | inconclusive: 106%
COC(=O)CNC(=O)c1nn(-c2cccc(OC)c2)c(=O)c2ccccc12 | inconclusive: 101%
COc1ccc(-c2nnc3c4ccccc4c(C)nn23)cc1 | inconclusive: 99%
O=C(COc1ccc(S(=O)(=O)NC2CCCCC2)cc1)NCc1cccnc1 | inconclusive: 93%
COc1ccc(N=C2CC(C)(C)CC(=O)/C2=C(/O)c2ccccc2)cc1 | inactive: 96%
CC(NC(=O)NC12CC3CC(CC(C3)C1)C2)C1CCCO1 (configuration not stated) | inactive: 105%
NC(=O)CSc1nnc(C2CC2)n1-c1ccccc1 | inactive: 99%
CCOc1cc(CO)ccc1OCC(=O)N1CCCCC1 | inconclusive: 100%
Oc1ccc(NC(=S)N=Nc2c(O)[nH]c3ccccc23)cc1 | active: 77%
COc1ccc(N/C=C/c2nc(SC)nnc2C)cc1 | active: 69%
Cc1ccccc1NC(=O)CN1C(=O)S/C(=C\c2ccc(-c3cc(C(=O)O)ccc3C)o2)C1=O | inactive: 86%
COc1ccc(CN(C)c2nc(-c3cccnc3)nc3ccccc23)cc1OC | inconclusive: 93%
O=c1[nH]snc1N1CCOCC1 | inactive: 96%
O=C(O)c1c(-c2ccc(Cl)cc2)cn2ccccc12 | inactive: 92%

Compound | GTP binding activity
C=CCNC(=O)c1ccccc1S(=O)c1ccccc1C#N (configuration not stated) | inconclusive: 94%
COc1ccc(NC(=O)N2CCCC2C(=O)NCc2ccc(F)cc2)cc1 (configuration not stated) | inconclusive: 102%
CC(C)Cc1nnc(NC(=O)CCc2c[nH]c3ccccc23)s1 | inconclusive: 93%
O=[N+]([O-])c1cc(Br)c(O)c(/C=N/Nc2nc3ccccc3s2)c1 | inconclusive: 86%
COc1cc(/C=N/NC(=O)c2nc(-c3ccccc3)n(-c3ccccc3)n2)ccc1O | inconclusive: 97%
Cc1ccc(C2=NN(CCC(=O)NCc3ccc4c(c3)OCO4)C(=O)CC2)cc1 | inconclusive: 162%
O=C(O)c1cc([N+](=O)[O-])ccc1NCc1ccccc1 | active: 150% [activator]
S=C(NCC1COc2ccccc2O1)Nc1ccc(Br)cc1 (configuration not stated) | inconclusive: 97%
COc1ccc(CC(=O)NC(CC(=O)O)c2cccc([N+](=O)[O-])c2)cc1 (configuration not stated) | inconclusive: 96%
N#CCc1c(C#N)c(N)nc(N2CCN(C=O)CC2)c1C#N | active: 79%
O=C1CN(C(=O)COC(=O)c2ccccc2NCc2ccco2)c2ccccc2N1 | inconclusive: 94%
Cc1cc(O)c(C(C)C)cc1NC(=O)c1ccccc1Cl | inconclusive: 102%
O=C(CN1CCCCC1)Nc1cccc([N+](=O)[O-])c1 | inconclusive: 106%
Cc1c(C=NCCOCc2ccccc2)cnn1C | inconclusive: 105%
O=C(Cn1cc(/C=N/NC(=O)c2cccc(C(F)(F)F)c2)c2ccccc21)Nc1ccc(F)cc1 | inconclusive: 100%
Cc1ccc(NC(=O)C2CCCN(C(=O)c3ccc(Cl)cc3)C2)cc1C (configuration not stated) | inconclusive: 94%
CC(=O)OCC(=O)Nc1ccccc1C | inactive: 94%
Nc1nc(-c2ccccc2)c(N=Nc2ccccc2Cl)s1 | inconclusive: 99%
CCN(CC)c1ccc(/C=C(/C#N)C(=O)NCc2ccccc2)o1 | inconclusive: 110%
Cc1ccc(CNC(=O)CCOc2ccc(C(C)(C)C)cc2)cc1 | inconclusive: 101%
Cc1c(NC(=O)C(C)OC(=O)c2ccc([N+](=O)[O-])s2)c(=O)n(-c2ccccc2)n1C (configuration not stated) | inactive: 94%
Clc1cccc(Oc2cnc3ccccc3n2)c1 | inconclusive: 103%
O=C(CC(=O)N/N=C\c1ccc([N+](=O)[O-])cc1)NCCc1ccccc1 | inconclusive: 94%

Compound | GTP binding activity
OCC1CCN(Cc2nc(Cc3ccccc3Cl)no2)CC1 | inconclusive: 96%
COc1ccccc1N/C(N)=N/c1nc(C(F)(F)F)cc(=O)[nH]1 | inactive: 99%
CCC(C)(C)n1nnnc1C(C(C)C)N1CCN(C)CC1 (configuration not stated) | inconclusive: 102%
CC(=O)Nc1ccc(S(=O)(=O)Nc2cccc(NC(=O)C(C)(C)C)c2)cc1 | inconclusive: 103%
CCOC(=O)c1sc2nc(C)nc(SCC(=O)NC3CCS(=O)(=O)C3)c2c1C (configuration not stated) | inactive: 93%
COc1ccc(Cl)cc1NC(=S)N1CCN(c2ccccn2)CC1 | inconclusive: 95%
Cc1ccc2cc(COC(=O)C3CCCO3)c(=O)[nH]c2c1 (configuration not stated) | inactive: 105%
Cc1ccccc1-c1nnc(-c2ccc(Cl)cc2)o1 | inactive: 98%
O=C(Nc1ccc([N+](=O)[O-])cc1)c1cc(-c2ccccn2)nc2c(Cl)cccc12 | inactive: 108%
O=C(NCCC(c1ccccc1)c1ccccc1)c1cnccn1 | inconclusive: 104%
ClC1(Cl)CC1CSc1nc2ccccc2[nH]1 (configuration not stated) | inconclusive: 94%
CC(C)c1ccc(NC(=O)COC(=O)/C=C/c2cccc([N+](=O)[O-])c2)cc1 | inconclusive: 89%
CC(Sc1nc2c(cc1C#N)CCCCC2)C(=O)O (configuration not stated) | inactive: 98%
CCOC(=O)c1sc2nc(CC(=O)OC)nc(N3CCN(c4ccccn4)CC3)c2c1C | inconclusive: 95%
CCN(C(=O)COc1cc(=O)n(C)c2ccccc12)c1cccc(Cl)c1 | inconclusive: 106%
Cc1ccc2nc(C)c(C(=O)N/N=C/c3cccs3)cc2c1 | inconclusive: 96%
COc1ccc(/C=N\NC(=O)CCN2CCN(c3ccccc3)CC2)cc1OC | inconclusive: 85%
O=C(CSc1nc2nn(-c3ccccc3)c(=O)c-2c2n1CCCCC2)NCCCc1ccccc1 | inconclusive: 96%
O=c1[nH][nH]c(-c2ccccc2O)c1C(C[N+](=O)[O-])c1ccccc1 (configuration not stated) | inconclusive: 97%
COC(=O)COc1ccc(/C=N/NC(=O)c2ccc(N(Cc3ccccc3)S(C)(=O)=O)cc2)cc1 | inactive: 81%
CCNC(=O)CC1C(=O)N(c2ccc(F)cc2)C(=O)N1Cc1ccccn1 (configuration not stated) | inconclusive: 108%
CC(=O)Nc1ccc(S(=O)(=O)N2CCN=C2C)cc1 | inconclusive: 104%
Cc1onc(C(=O)NN)c1C(=O)N1CCN(C(c2ccccc2)c2ccccc2)CC1 | inconclusive: 89%
